Data published in the antibiotic and cytotoxicity screens of Wong et al. (2023).
Some of the results follow.

What was measured:
HSkMC = human skeletal muscle cells; assay: cytotoxicity call (relative viability < 0.9); conditions: 10 µM
HepG2 = assay: cytotoxicity call (relative viability < 0.9); conditions: 10 µM
S. aureus RN4220 = assay: growth inhibition call (relative growth <= 0.2); conditions: 50 µM

| Structure (SMILES) | cytotoxicity call (HSkMC) | cytotoxicity call (HepG2) | growth inhibition call (S. aureus RN4220) |
| --- | --- | --- | --- |
| C[C@@H]1CCCCO[C@@H](CN(C)CC2CCCCC2)[C@H](C)CN([C@@H](C)CO)C(=O)c2cc(NC(=O)Nc3ccc4c(c3)OCO4)ccc2O1 | inactive | inactive | inactive |
| C=C(C)[C@]1(O)OC(=O)C=C1OC | inactive | inactive | inactive |
| C[C@@H]1CN([C@H](C)CO)S(=O)(=O)c2ccc(C3=CCCCC3)cc2O[C@@H]1CN(C)C(=O)C1CCOCC1 | inactive | inactive | inactive |
| COc1ccc(S(=O)(=O)Nc2cccc3c2O[C@@H](CN(C)Cc2ccc(Oc4ccccc4)cc2)[C@@H](C)CN([C@H](C)CO)C3=O)cc1 | inactive | inactive | inactive |
| Nc1ccn([C@H]2C[C@H](O)[C@@H](CO)O2)c(=O)n1 | inactive | inactive | inactive |
| CN1N=C(C(N)=O)CCC1=O | inactive | inactive | inactive |
| C[C@@H]1CN([C@@H](C)CO)C(=O)c2cc(NC(=O)NC3CCCCC3)ccc2O[C@@H](C)CCCCO[C@H]1CN(C)Cc1ccc(C(=O)Nc2ccccc2N)cc1 | inactive | inactive | inactive |
| C[C@H](CO)N1C[C@H](C)[C@H](CN(C)Cc2ccc(C(=O)O)cc2)OCCCC[C@H](C)Oc2ccc(NC(=O)Nc3ccc(F)cc3)cc2C1=O | inactive | inactive | inactive |
| N=C(NO)C(=O)Nc1ccccc1 | inactive | inactive | inactive |
| O=C(O)[C@H]1CCCCN1 | inactive | inactive | inactive |
| Cn1ccnc1C(=O)N[C@@H]1CN(C(N)=O)[C@H]2CCCO[C@@H]12 | inactive | inactive | inactive |
| CC(C)NC(=O)NCC[C@@H]1CC[C@H](NC(=O)CN(C)C)[C@H](CO)O1 | inactive | inactive | inactive |
| C[C@@H]1CN([C@@H](C)CO)C(=O)c2cc(-c3ccc(C#N)cc3)cnc2O[C@@H]1CN(C)C(=O)Nc1ccc(C(F)(F)F)cc1 | inactive | inactive | inactive |
| O=C([O-])c1ccccc1-c1c2cc(I)c(=O)c(I)c-2oc2c(I)c([O-])c(I)cc12.[Na+].[Na+] | inactive | inactive | active |
| O=C(C[C@H]1C[C@@H]2c3cc(NC(=O)c4ccc5c(c4)OCO5)ccc3O[C@@H]2[C@@H](CO)O1)NCC(F)(F)F | inactive | inactive | inactive |
| CC(C)NC(=O)Nc1cccc2c1O[C@@H](CN(C)S(=O)(=O)c1ccccc1)[C@H](C)CN([C@@H](C)CO)C2=O | inactive | inactive | inactive |
| Cc1noc(C)c1S(=O)(=O)N(C)C[C@@H]1OCCCC[C@@H](C)Oc2ccc(N(C)C)cc2C(=O)N([C@@H](C)CO)C[C@H]1C | inactive | inactive | inactive |
| COc1ccc(NC(=O)N(C)C[C@H]2Oc3ccc(NS(=O)(=O)c4cn(C)cn4)cc3C(=O)N([C@H](C)CO)C[C@H]2C)cc1 | inactive | inactive | inactive |
| CCC(=O)N[C@H]1C=C[C@H](CC(=O)OC)O[C@H]1CO | inactive | inactive | inactive |
| CCOC(=O)c1cc(C(=O)OCC)n(C)n1 | inactive | inactive | inactive |
| C[C@H]1CN([C@@H](C)CO)C(=O)c2cc(NC(=O)c3ccncc3)ccc2O[C@H]1CN(C)C(=O)Nc1ccc2c(c1)OCO2 | inactive | inactive | inactive |
| COc1ccc(CN(C)C[C@H]2OCCCC[C@@H](C)Oc3ccc(NS(=O)(=O)c4ccc(Cl)cc4)cc3C(=O)N([C@@H](C)CO)C[C@H]2C)cc1 | inactive | active | inactive |
| COc1cccc(S(=O)(=O)Nc2ccc3c(c2)[C@H]2C[C@@H](CC(=O)NCC(F)(F)F)O[C@@H](CO)[C@H]2O3)c1 | inactive | inactive | inactive |
| C[C@H](CO)N1C[C@H](C)[C@@H](CN(C)C(=O)Nc2ccc(C(F)(F)F)cc2)Oc2c(NC(=O)Nc3ccc(F)cc3)cccc2C1=O | inactive | inactive | inactive |
| C[C@@H]1CN([C@H](C)CO)C(=O)c2c(c3ccccc3n2C)-c2ccccc2CO[C@@H]1CN(C)C(=O)Nc1ccccc1 | inactive | inactive | inactive |
| COc1cccc(CNC(=O)c2cc3c(c(-c4cccc(-c5cccc(C#N)c5)c4)n2)[C@@H](CCO)N([S@](=O)C(C)(C)C)C3)c1 | inactive | inactive | inactive |
| Cc1cc(C(=O)Nc2cccc3c2O[C@@H](CN(C)S(=O)(=O)c2ccc(F)cc2)[C@H](C)CN([C@H](C)CO)C3=O)n(C)n1 | inactive | inactive | inactive |
